First the molecules themselves.
B1: CPEB3 Ribozyme (parent)
chain: UAACAGGGGGCCACAGCAGAAGCGUUCACGUCGCAGCCCCUGUCAGAUUCUGGUGAAUCUGCGAAUUCUGCUGUAUAUCUC

The source gives no read counts; variants with many changes may rest on few reads.

In the data set the parent is B1. In words: self-cleavage, relative activity (ratio to wild type); higher = more cleavage; in vitro, sequencing. The method in brief: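 Libraries of CPEB3 self-cleaving ribozyme mutants came from rounds of error-prone PCR and carried barcodes, which DNA sequencing matched to variants. In vitro transcription used T7 RNA polymerase at 37°C for 5 hours, with a further 15 min in DNase I before EDTA stopped the reaction; the ribozymes cleaved during both steps. The RNA was reverse transcribed with template switching and sequenced on Illumina. Relative activity is the cleaved/total read fraction of a variant divided by that of the unmutated ribozyme, averaged over three batches with at least 5 reads.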
With UAACAGGUGGCCACAGCAGAAGCGUUCGCGUCGCAGCCCCCGUCAGAUUCUGGUGAAUCUGCGUAUUCUGCCGUAUAUCUC [G8U A28G U41C A64U U72C], the self-cleavage came to 0.07.

On to UAACAGGUGGCCACAGCAGAAGCGUACACUUCGCAGCCCCUGUCAGAUUCUGGUGAAUCUGCGAAUUCUGCUGUACAUCUC [G8U U26A G30U U76C], for which the self-cleavage was found to be 0.09.

With UAACAGGGAGCCACUGCGGAAGCGUUCACGUCGCAGCCCUAGUCAGAUUCUGGUGAAUCUGCGAAUUCUGCUGUAUAUCUC [G9A A15U A18G C40U U41A], the self-cleavage was determined as 0.2.

With UAACAGGGAGCCACAGCAGGAGCGUUCACGUCGCAGCCCCAGUCAGAUUCUGGUGUAUCUGCGAAUUCUGCUGUAUAUCUC [G9A A20G U41A A56U], the self-cleavage is 0.18.

On to UAACAGGUGGCCACAGCAGUAGCGUUCACGUCGCAGCUCCCGUCAGAUUCUGGCGAAUCUGCGAGUCCUGCUGUAUAUCUC [G8U A20U C38U U41C U54C A65G U67C], for which the self-cleavage was determined as 0.03.

Turning to UAACAGGGAGCCACAGCGGGGGCGUCCACGUCGCAGCCCCUGUCAGAUUCUGGUGAAUCUGCGGAUUCUGCUGUAUAUCUC [G9A A18G A20G A21G U26C A64G], the self-cleavage amounted to 0.05.

For the variant UAACAGGUGGCCACAGCAGAAGCGUUCACGUCGCAGCCCCUGUCAGAUUCUGGUGAAUCUGCGAAUUCCGCCGUAUACCUC [G8U U69C U72C U78C], the self-cleavage was 0.14.

For the variant UAACAGGGAGCCACAGCAGUAGCGCUCACGUCGGAGCCCCUGUCAGAUUCUGGUGAAUCAGCGAAUUCUGCUGUGUAUCUC [G9A A20U U25C C34G U60A A75G], the self-cleavage worked out at 0.04.

Take UAACAGGGAGCCACUGCAGAAGCGUUCACGUCGCAGCCCCUGUCAGAUUCUGGUGAAUCUGCGUAUUCUGCUGUAUAUCUC [G9A A15U A64U]: the self-cleavage was determined as 0.06.

For UAACAGGUGGCCACAGUAGAAGCGUUCACGACGCAGCCCCUGUCAGAUUUGGGUGAAUCCGCGUAUUCUGCUGUAUAUCUC [G8U C17U U31A C50U U51G U60C A64U], the self-cleavage was 0.06.

Turning to UAACAGGGAGCCCCAGCAGAAGCGUUCACGUCGCAGCCCCUGUCAGGUUCUGGUGGAUCUGCGAAUUCUGCUGUAUAUCUC [G9A A13C A47G A56G], the self-cleavage amounted to 0.29.

On to UAACAGGGAGCCACGGCAGAAGCGUUCACGUCGCAGCCCCUGUCAGAUUCUGGUGAAUCUGCGAAUUCCGCUGUAUAUCUC [G9A A15G U69C], for which the self-cleavage amounted to 0.07.

For the variant UAACAGGUGGCCACAGCAGAAGCGUUCACGUCGCAGCCCCUGUCAGAUUCUGGUGAAUCAGCGAAAUCUGCUGUAUAUCUC [G8U U60A U66A], the self-cleavage worked out at 0.14.

Turning to UAACAGGGAGCCACGGCAGAAGCGUUCACGUCGCAGUCCCUGUCAGAUUCUGGUGAAUCUGCGAAUUCUGCUGUAUAGCUC [G9A A15G C37U U78G], the self-cleavage turned out to be 0.11.

For UAACAGGGAGCCACGGCAGAAUCGUCCACGUCGCAGCCCCUGUCGGAUUCUGGUGAAUCUGCGAAUUCAGCUGUAUACCUC [G9A A15G G22U U26C A45G U69A U78C], the self-cleavage amounted to 0.04.

As to UAACAGGGAGCCACGGCAGAAGCGCUCACGUCGCAGCCCCUGUCAGAUUCUGGUGAAUCCGCGAACUCUGCUGUAUAUCUC [G9A A15G U25C U60C U66C], the self-cleavage was 0.26.

Consider UAACAGGGAGCCACGGCGGAAGCGUACACGUCGCAGCCCCUGUCAGAUUCUGGUGAAUCUGCGAACUCUGCUGUAUAUCUC [G9A A15G A18G U26A U66C], for which the self-cleavage amounted to 0.14.

For UAACAGGGAGCCCCAGCAGAAGCGUUCACGUCGCAGCCCCUGUCAGAUUAUGGUGAAUCUGCGAAUUCUGCUGUAUAUCUC [G9A A13C C50A], the self-cleavage was found to be 0.11.

With UAACAGGUGGCCACAGCAGAAGCGUUCACGUCGCAGCCCCUGUCAGAUUCUGGUGAAUCUGCGAAUUCAGCAGUGUAUCUC [G8U U69A U72A A75G], the self-cleavage came to 0.03.

Take UAACAGGGAGCCACAGCAGUAGCGUUCACGUCGCAGCCCCUGUCAGAUUCUGGUGAAUCUGCGAGUUCUGCUGUAUAUCUC [G9A A20U A65G]: the self-cleavage was found to be 0.05.

Take UAACAGGUGGUCACAGCAGAAGCGUUCACGUCGCAGCCCCUGUCGGACUCUGGUGAAUCUGCGAAUUCUGCUGUAUAUCUC [G8U C11U A45G U48C]: the self-cleavage was 0.21.

On to UAACAGGUGGCCACAGCAGAAGCGUUCACGUCGCAGCCCCUGUCUGAUUCAGGUGAAUCUGCGGAUUCUGCUGUAUAUCUC [G8U A45U U51A A64G], for which the self-cleavage was 0.06.

For UAACAGGGAGCCUCAGCAGAAGCGUUCACGUCGCAGCCCCUGUCAGAUUCUGGUGAACCUGCGAAUUCUGCUGUAUAUCUC [G9A A13U U58C], the self-cleavage turned out to be 0.29.

On to UAACAGGGAGCCACUGCAGAAGCGUUCUCGUCGCUGCCCCUGUCAGAUUCUGGUGAAUCUGCGAAUUCUGCUGUAUAUCUC [G9A A15U A28U A35U], for which the self-cleavage came out at 0.07.

Consider UAACAGGGAGCCACGGCAGAAGCUUUCACGUCGCAGCCCCUGUCAGAUUCUAGUGAACCUGCGAAUUCUGCUGUAUAUCUC [G9A A15G G24U G52A U58C], for which the self-cleavage was 0.06.

For the variant UAACAGGUGGCCACAGCAGAAGCGUUCACGUCGCAGCCCCUGUCAGAUUCUGGUGAAUCUGCGAAUUCUGCCGUAUGCCUC [G8U U72C A77G U78C], the self-cleavage was determined as 0.19.

As to UAACAGGGAGCCACAGCCGAAGCGUUCACGUCGCAGCCCCCGUCAGAUUCUGGUGGAUCUGCGAAUUCUGCUGCAUAUCUC [G9A A18C U41C A56G U74C], the self-cleavage stood at 0.06.

In the case of UAACAGGUGGCCACAGCAGAAGCGUUCACGUCGCAGCCCCUGUCAGAUUCUGGCGAAUCUGCGAAUCCUGCUGUAUAUCUC [G8U U54C U67C], the self-cleavage came out at 0.08.

As for UAACAGGGAGCCACUGCAGAAGCGUCCGCGUCGCAGCCCCUGCCAGAUUCUGGUGAAUCUGCGAAUUCUGCUGUAUAUCUC [G9A A15U U26C A28G U43C], the self-cleavage amounted to 0.06.

With UAACAGGUGGCCACAGCAGAAGCGUUCACGUCGCUGCCCCUGUCAGAUUCCGGUGAACCUGCGAAUUCAGCUGUAUAUCUC [G8U A35U U51C U58C U69A], the self-cleavage was 0.1.

For UAACAGGUGGCGACGGCUGUAGCGUUCACGUCGCAGCCCCUGUCUGAUUCUGGUGAAUCUGCGAAUUCUGCUGUAUAUCUC [G8U C12G A15G A18U A20U A45U], the self-cleavage was determined as 0.05.

For the variant UAACAGGGAGCCACGGCAGAAGCGUACACGUCGCAGCCCCUGUCGGAUACUUGUGAAUCCGCGAAUUCUGCUGUAUAUCUC [G9A A15G U26A A45G U49A G52U U60C], the self-cleavage was found to be 0.06.

On to UAACAGGGAGCCACUACAGAAGCGCUCACGUCGCAGCCCCUGUCAGAUUCAGGUGAAUCUGCGAAUUCUGCUGCAUAUAUC [G9A A15U G16A U25C U51A U74C C79A], for which the self-cleavage came to 0.04.

In the case of UAACAGGUAGCCACAGCAGAAGCGUUCACGUCGCAGCCCCUGUCAGAUUCAGGUGAAGCUGCGAAUUCUGCUGUAUAUCUC [G8U G9A U51A U58G], the self-cleavage stood at 0.18.

These data come from the RNAGym collection of RNA variant scans (doi:10.1093/nar/gkz1192).
